Test results: publication PMC7819943, “Rice protein-binding microarrays: a tool to detect cis-acting elements near promoter regions in rice”
This is one part of the list.

target: T1, OsWOX13 (Oryza sativa, UniProt Q5QMM3 1-267); test: protein-binding microarray (RPBM); PBS, 2% BSA, 51.3 ng/ul salmon testes DNA, 50 uM zinc acetate, 200 nM TF, 25 C, 1 h; high values mean tight binding; details: protein: recombinant; tags: N-terminal polyhistidine and DsRed monomer fusion (pET32a); label: CyDye5-dUTP incorporated in the synthesized complementary strand; 3' TTTTT single-stranded linker to array surface; dsDNA, one strand shown
T1 sequence: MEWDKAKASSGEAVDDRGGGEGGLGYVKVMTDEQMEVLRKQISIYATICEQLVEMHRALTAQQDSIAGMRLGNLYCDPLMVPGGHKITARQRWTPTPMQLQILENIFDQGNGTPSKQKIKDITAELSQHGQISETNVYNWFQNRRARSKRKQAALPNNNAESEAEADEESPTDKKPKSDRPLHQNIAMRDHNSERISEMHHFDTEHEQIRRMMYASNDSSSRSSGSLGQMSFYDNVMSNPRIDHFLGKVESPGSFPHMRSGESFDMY
Method in brief: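 The binding signal is fluorescence intensity per array feature (arbitrary units). Readings came from an Axon 4000B scanner after a washed, 2% BSA-blocked, double-stranded custom Agilent array had been incubated for 1 h at 25 °C with 200 nM protein and 50 µM zinc acetate. The protein was a Ni–NTA-purified transcription factor fused N-terminally to polyhistidine and DsRed, expressed in E. coli BL21-CodonPlus.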

Going from “GGCTGACAGATCTGCTGATGTAGTCGGCTTCACCTCCAGCCGGAGTCACCTAGTGCAG” to “GTTGATGGATTTGATCATCATTGTCGGGTAAAATTTTCTTCGGAGTCACCTAGTGCAG”, the binding signal rises from 17400 fluorescence intensity (a.u.) to 27800 fluorescence intensity (a.u.).

First: GGAACAGGTACCATAATTGTTAATAACCTAATACTGGGCCCGGAGTCACCTAGTGCAG
Second: GTTTGACTGCTAGTGCATTAATCAGATTTAAACTTACAATCGGAGTCACCTAGTGCAG
The binding signal of the first is lower: 5270 fluorescence intensity (a.u.) for the first, 8120 fluorescence intensity (a.u.) for the second.

Going from “TAAAATTTAAAATTATAAAATTAATAATGCTGTAAATCTACGGAGTCACCTAGTGCAG” to “AAAACAAAATTAATGAATTAATTAACCAAGACCCATGGCTCGGAGTCACCTAGTGCAG”, the binding signal rises from 7610 fluorescence intensity (a.u.) to 33100 fluorescence intensity (a.u.).

Compared with “GTTAATAGCTTTGTTAATCTACTCCACCGGTTCGACAGAACGGAGTCACCTAGTGCAG”, “GCTTTTATGATTTTCCAAAGAATTAATTTTCGAATGGGCTCGGAGTCACCTAGTGCAG” is higher in binding signal: 4090 fluorescence intensity (a.u.) for the first, 4920 fluorescence intensity (a.u.) for the second.

First: CTTAAATTTCATTATCAAAGTGCCCTCTAAATTCTTTAGACGGAGTCACCTAGTGCAG
Second: GTTAAATATTGACAAAATTTAGCATCAAAACCGTAGAGACCGGAGTCACCTAGTGCAG
The binding signal of the first is lower: 6920 fluorescence intensity (a.u.) for the first, 17900 fluorescence intensity (a.u.) for the second.

First: CATAACATGAATAAACCGGATAAATATTGGACACCCAATGCGGAGTCACCTAGTGCAG
Second: ATAAATTGCAGGGCAAACCTGTTGCTCACGACGAGAGAGCCGGAGTCACCTAGTGCAG
The binding signal of the first is lower: 4660 fluorescence intensity (a.u.) for the first, 6780 fluorescence intensity (a.u.) for the second.

Compared with “AAGATAGATAGATTCATCGCGATCGATCGAGCGGGAGGTACGGAGTCACCTAGTGCAG”, “ATGTAAATTTAAATCTCTCATATTATATCATGATAGCACACGGAGTCACCTAGTGCAG” is higher in binding signal: 22500 fluorescence intensity (a.u.) for the first, 30700 fluorescence intensity (a.u.) for the second.

Compared with “TTCAAATCATTGATGCACACTAGCACTAACCACAGCCAGACGGAGTCACCTAGTGCAG”, “ATGTGATTACGGCATTCTCTGCCGATTGCCACTCTGTTCTCGGAGTCACCTAGTGCAG” is higher in binding signal: 15900 fluorescence intensity (a.u.) for the first, 22900 fluorescence intensity (a.u.) for the second.

First: GTAAAATTGGGCTTGTTAAACTTGGTAGGCTTTAGCTCTGCGGAGTCACCTAGTGCAG
Second: CCTTAATTAAACTATATAACAATAATAAAATTAAAATAGCCGGAGTCACCTAGTGCAG
The binding signal of the first is lower: 4400 fluorescence intensity (a.u.) for the first, 10900 fluorescence intensity (a.u.) for the second.

First: ACAATTAATTCATTGTCAACTAATGGAATAGGGATAGAGGCGGAGTCACCTAGTGCAG
Second: GTATAACTGGTTGAGTTGGTGTGTGGGGCTACCTTTCTTCCGGAGTCACCTAGTGCAG
The binding signal of the first is higher: 19100 fluorescence intensity (a.u.) for the first, 5440 fluorescence intensity (a.u.) for the second.

First: GCATTATCATTTATATTTACTGATGGAAACACCTACTAATCGGAGTCACCTAGTGCAG
Second: AGGCTATATCTACACTGTGTAATTGATAAGGATGAACTAACGGAGTCACCTAGTGCAG
The binding signal of the first is lower: 7460 fluorescence intensity (a.u.) for the first, 10500 fluorescence intensity (a.u.) for the second.

Going from “ATGTTGATGAGAGGAATGAATTATTCCAGCACACTGGTACCGGAGTCACCTAGTGCAG” to “ATAGAAGAAATTGACATTGGCACGCCACTTCTCAAAACTTCGGAGTCACCTAGTGCAG”, the binding signal rises from 6030 fluorescence intensity (a.u.) to 10300 fluorescence intensity (a.u.).

First: GTGTTTAAATTAATTTAAAAGTAAACTAAGTGTGGAAATACGGAGTCACCTAGTGCAG
Second: TCCTAACTAGTTAATCACATGAGGAACACCATAACAATTCCGGAGTCACCTAGTGCAG
The binding signal of the first is higher: 25300 fluorescence intensity (a.u.) for the first, 11500 fluorescence intensity (a.u.) for the second.

First: TTTCTGATCGATGCGCGGTTGATTGATCTTGGTGCGGACGCGGAGTCACCTAGTGCAG
Second: GGTCAAGATTTCTGGTATTGTGATTGAGGGATATGATTTACGGAGTCACCTAGTGCAG
The binding signal of the first is higher: 20400 fluorescence intensity (a.u.) for the first, 8250 fluorescence intensity (a.u.) for the second.

Compared with “GTATAAATTTGGACAGATTGTGATTAGATTTATAGTCCTACGGAGTCACCTAGTGCAG”, “AATCTGATTTAATAATCTGGATTACAATAATCTTAAGCTGCGGAGTCACCTAGTGCAG” is higher in binding signal: 29800 fluorescence intensity (a.u.) for the first, 33000 fluorescence intensity (a.u.) for the second.

First: CACGGTAAATCACGAGTAATAATTTTAGGATTTAAGTTCTCGGAGTCACCTAGTGCAG
Second: GTTAACTGAAACAGTCTGCTCTGAATTCTGAAGATTGCAACGGAGTCACCTAGTGCAG
The binding signal of the first is lower: 9550 fluorescence intensity (a.u.) for the first, 11300 fluorescence intensity (a.u.) for the second.

Going from “ACTTTGTTAATGTAAATTAATGATCTCACTGTTCATACTACGGAGTCACCTAGTGCAG” to “CCCACACAGCATTCAGGCCTCGTTCTTCGCACTGGGCCCTCGGAGTCACCTAGTGCAG”, the binding signal falls from 21300 fluorescence intensity (a.u.) to 6660 fluorescence intensity (a.u.).

Going from “TTATTGTGGTAATTTGTGTATGTTGCTAATCTGCGATTCACGGAGTCACCTAGTGCAG” to “ACATAAACTGATATTTTAGAGTATTATTTTATCGAAGCGCCGGAGTCACCTAGTGCAG”, the binding signal rises from 3450 fluorescence intensity (a.u.) to 13900 fluorescence intensity (a.u.).

Going from “CAACAACGATTGTTTTAATTATTAGAGATTAGTGGATAACCGGAGTCACCTAGTGCAG” to “ATATTAACACACGATTAATTAAGTTTTAATTATTGAAAACCGGAGTCACCTAGTGCAG”, the binding signal rises from 6060 fluorescence intensity (a.u.) to 14700 fluorescence intensity (a.u.).

Compared with “TATCTAAATTACTTTTAGATTTCACTAAGTTACTTCTTAACGGAGTCACCTAGTGCAG”, “GCAAGTGTGATTGATCATTACTTGCTTGGTCTGATGGTTGCGGAGTCACCTAGTGCAG” is higher in binding signal: 7540 fluorescence intensity (a.u.) for the first, 48300 fluorescence intensity (a.u.) for the second.

Compared with “TCTGATTGACGGTGTTTGCAAGCAGAGTTCCTCTTCTTGGCGGAGTCACCTAGTGCAG”, “CTTAATTATCCTGATGAAAGGCTGAAATTTCAAGATCCAACGGAGTCACCTAGTGCAG” is lower in binding signal: 61500 fluorescence intensity (a.u.) for the first, 37600 fluorescence intensity (a.u.) for the second.
